{"source": "PubChem BioAssay AID686978", "about": "(National Center for Advancing Translational Sciences (NCATS), 2013)", "note": "Values joined by “and” are separate entries in the source; they are usually repeats but may differ in a detail not shown here. Equal entries are not always repeated. About 64,000 (15%) of roughly 420,000 compounds were called active. This list was built around the results that the source calls inconclusive (neither active nor inactive); the mix of calls is not that of the screen. Calls come from the whole dose curve; as a rule, active = well fitted inhibition curve with a large enough effect; inconclusive = small, poorly fitted or top-dose-only effect; inactive = flat fitted curve, though single readings scatter. No potency is given beside an inconclusive call; the fits are too rough. % is set by controls: 0 for no effect and ±100 for the full control effect; potency is the fitted concentration of half-maximal effect; tags give direction and shape of the fitted curve.", "data": [{"assay": "qHTS for Inhibitors of human tyrosyl-DNA phosphodiesterase 1 (TDP1): qHTS in cells in absence of CPT; note: nearly all actives have a fitted effect of over 55% in size", "details": "DT40 Tdp1-/- hTDP1 cells, no CPT, ATP luminescence, 48 h; activity change, negative = growth inhibition: at 46.2 µM (top of the series) unless noted", "how_it_was_run": "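Compound effects on proliferation are scored in DT40 Tdp1-/-;hTDP1 cells in the absence of CPT. ATP levels (CellTiter-Glo luminescence) are recorded after a ≥48 hr, 37 °C incubation.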", "values": [{"smiles": "Cc1cccc(C)c1NC(=O)c1c(C)oc2c1C1=NCCN1C=N2", "Potency": "inconclusive [inhibitor, single point]"}, {"smiles": "COc1cccc(NC(=O)C2CC2)c1", "activity change, negative = growth inhibition": "inactive: -3.89%"}, {"smiles": "CCCCN1C(N)=NC[C@@H]1CCCCN", "activity change, negative = growth inhibition": "inactive: 1.06%"}, {"smiles": "COc1ccc(Nc2cc(C(=O)NCCCN(C)c3ccccc3)c3ccccc3n2)c(OC)c1", "Potency": "active: 11.6 µM"}, {"smiles": "Cc1ccc2[nH]c(CSc3nnc(NC(=O)COc4ccccc4C)s3)cc(=O)c2c1", "Potency": "inconclusive [inhibitor, full curve]"}, {"smiles": "CCCCn1c(=O)nc2n(-c3ccccc3)c3ccccc3cc-2c1=O", "activity change, negative = growth inhibition": "inconclusive: -31.1% [inhibitor]"}, {"smiles": "Cc1ccsc1/C=N/NC(=O)c1nnn(-c2nonc2N)c1-c1ccc2c(c1)OCO2", "activity change, negative = growth inhibition": "inactive: -18.3%"}, {"smiles": "N#C/C(C(N)=O)=C1/SC=C(c2ccccc2)N1c1ccccc1", "Potency": "active: 18.4 µM"}, {"smiles": "CCCc1cc(=O)[nH]c(SCC(=O)NCCCC(=O)OCC)n1", "activity change, negative = growth inhibition": "inactive: -3.49%"}, {"smiles": "CN(C)CCCN(C(=O)c1ccc(S(=O)(=O)N2CCCCCC2)cc1)c1nc2cc3c(cc2s1)OCO3", "Potency": "inconclusive [inhibitor, single point]"}, {"smiles": "O=C(CSc1ccc(F)cc1)Nc1nnc(-c2ccco2)o1", "Potency": "inconclusive [inhibitor, single point]"}, {"smiles": "CCOC(=O)c1ccc(Nc2nc(N)c3cc(OC)c(OC)cc3n2)cc1", "Potency": "active: 4.11 µM and active: 20.6 µM"}, {"smiles": "COC(=O)c1ccc(NC(=O)c2cc(S(=O)(=O)N3CCC(C)CC3)cn2C)cc1", "Potency": "inconclusive [inhibitor, single point]"}, {"smiles": "Cc1cc(C(=O)N2CCCC(C)(C(=O)NS(=O)(=O)C3CC3)C2)n(C(C)(C)C)n1", "note": "(stereo not drawn)", "Potency": "active: 5.17 µM"}, {"smiles": "O=C(CCC1CCCN(C(=O)CC2=CCCCC2)C1)N1CCN(c2ccccn2)CC1", "note": "(stereo not drawn)", "Potency": "active: 16.4 µM"}, {"smiles": "CC(C)(C)OC(=O)C[C@@H]1C/C=C\\C[C@@H](CC(=O)N(CCO)Cc2ccccc2)C(=O)NCCOC1=O", "activity change, negative = growth inhibition": "inactive: -21.2%"}, {"smiles": "O=C(c1ccc(S(=O)(=O)N2CCOCC2)cc1)N1CCN(c2ccc(F)cc2)CC1", "Potency": "inconclusive [inhibitor, partial curve]"}, {"smiles": "CCN(CC)CCNC(=O)c1ccc2c(c1)NC(=O)C(CS(=O)(=O)Cc1ccc(F)cc1Cl)N2", "note": "(stereo not drawn)", "Potency": "inconclusive [inhibitor, single point]"}, {"smiles": "COC1C=CC(CNC(=O)c2cc3c(=O)n4cccc(C)c4nc3n2C)(OC)O1", "note": "(stereo not drawn)", "activity change, negative = growth inhibition": "inactive: -15%"}, {"smiles": "CCn1cc(C(=O)NCCCN2CCC(C)CC2)c(=O)c2cc(S(=O)(=O)N(C)C3CCCCC3)ccc21", "Potency": "inconclusive [inhibitor, single point]"}, {"smiles": "CNc1nc(-c2ccccn2)nnc1-c1ccccc1", "Potency": "active: 22.4 µM"}, {"smiles": "Cc1cccc(C(=O)Nc2ccc(C(=O)/C=C/c3cccs3)cc2)c1", "Potency": "active: 16.4 µM"}, {"smiles": "CCSc1sccc1C1C(C#N)=C(N)N(c2cccnc2)C2=C1C(=O)CCC2", "note": "(stereo not drawn)", "Potency": "inconclusive [inhibitor, single point]"}, {"smiles": "Cc1ccnc2nc(C(=O)OCC(=O)NC(=O)NCc3ccco3)nn12", "activity change, negative = growth inhibition": "inactive: -0.303%"}, {"smiles": "O=C(NCc1ccc(F)cc1)C1CC(=O)N(C2CCCCC2)C1", "note": "(stereo not drawn)", "activity change, negative = growth inhibition": "inactive: 20.9%"}, {"smiles": "CCN(CC)CCN1CCn2c3c(c4cc(C)ccc42)CCCC31", "note": "(stereo not drawn)", "Potency": "active: 23.1 µM"}, {"smiles": "O=C(O)c1cc(S(=O)(=O)N2CCCCC2)ccc1N1CCCCC1", "activity change, negative = growth inhibition": "inactive: 29.6%"}, {"smiles": "Cn1c(=O)c2c(ncn2CC(O)CNc2ccc(Br)cc2)n(C)c1=O", "note": "(stereo not drawn)", "Potency": "inconclusive [inhibitor, partial curve]"}, {"smiles": "Oc1ccccc1C=NCCCCCCN=Cc1ccccc1O", "activity change, negative = growth inhibition": "inactive: -12.1%"}, {"smiles": "Cc1cccc(OCC(=O)Nc2ccccc2N2CCCCC2)c1C", "Potency": "inconclusive [inhibitor, single point]"}, {"smiles": "COc1ccc(Cn2nnnc2C(c2cccnc2)N2CCN(c3ccc(O)cc3)CC2)cc1", "note": "(stereo not drawn)", "Potency": "inconclusive [inhibitor, single point]"}, {"smiles": "CCCOc1ccc(C(F)(F)F)cc1NC(=O)C1CC(=O)N(Cc2ccco2)C1", "note": "(stereo not drawn)", "Potency": "inconclusive [inhibitor, single point]"}, {"smiles": "C#CCOc1ccc(CNC[C@H]2O[C@@H](n3cnc4c(N)ncnc43)[C@H](O)[C@@H]2O)cc1", "Potency": "inconclusive [inhibitor, single point]"}, {"smiles": "Cc1nn(C)c2c1c(-c1ccccc1)cc(=O)n2C(C)C(=O)NCCc1ccc(Cl)cc1", "note": "(stereo not drawn)", "Potency": "inconclusive [inhibitor, single point]"}, {"smiles": "O=S(=O)(Nc1ccc(-c2ccc3nncn3n2)cc1)c1ccccc1Cl", "activity change, negative = growth inhibition": "inactive: -9.98%"}, {"smiles": "C/C(N)=C(/C#N)C(=O)CSc1nc(C2CCCCC2)n(-c2ccccc2)n1", "Potency": "inconclusive [inhibitor, single point]"}, {"smiles": "O=C(CSc1nnc(-c2cccnc2)n1Cc1ccco1)c1ccc(Cl)c(Cl)c1", "Potency": "inconclusive [inhibitor, partial curve]"}, {"smiles": "COc1cccc(OCC(=O)O/N=C(\\N)c2ccc(OC)c(OC)c2)c1", "activity change, negative = growth inhibition": "inactive: -23%"}, {"smiles": "CN1CCC[C@@H]1Cc1c[nH]c2ccc(CCS(=O)(=O)c3ccccc3)cc12", "Potency": "inconclusive [inhibitor, single point]"}, {"smiles": "Cc1c(N=C2N=C(NC(=O)Nc3ccc(Cl)cc3)c3ccccc32)c(=O)n(-c2ccccc2)n1C", "Potency": "active: 23.1 µM"}, {"smiles": "CC(C)c1nc2ccc(C(=O)NCc3ccc(F)cc3)cc2o1", "Potency": "inconclusive [inhibitor, single point]"}, {"smiles": "COc1ccc(S(=O)(=O)NCC(c2ccco2)N2CCN(c3ccccc3F)CC2)cc1OC", "note": "(stereo not drawn)", "Potency": "inconclusive [inhibitor, single point]"}, {"smiles": "N[C@@H](CO)C(=O)O", "Potency": "inactive"}, {"smiles": "NS(=O)(=O)c1cccc(NC(=O)Cn2nc(C(=O)O)c3ccccc3c2=O)c1", "activity change, negative = growth inhibition": "inactive: 4.22%"}, {"smiles": "COc1ccccc1CNCC(=O)N1CC(=O)Nc2ccccc21", "activity change, negative = growth inhibition": "inactive: -10.8%"}, {"smiles": "O=C(CN1CCCCCC1)Nc1ccc(S(=O)(=O)N2CCCCC2)cc1", "Potency": "inconclusive [inhibitor, partial curve, poor fit]"}, {"smiles": "CCOc1ccccc1OCCCC(=O)NC1CCCc2ccccc21", "note": "(stereo not drawn)", "Potency": "inconclusive [inhibitor, single point]"}, {"smiles": "COCCN1C(=O)/C(=C/c2ccc(N3CCCC3)cc2)SC1=S", "Potency": "inconclusive [inhibitor, partial curve]"}, {"smiles": "COc1ccc(-c2ccc3c(N)c(C(=O)Nc4ccc(C)cc4C)sc3n2)cc1OC", "Potency": "inconclusive [inhibitor, single point]"}, {"smiles": "c1ccc(Cn2c(Cn3c(-c4cnccn4)nc4ccccc43)nc3ccccc32)cc1", "Potency": "inconclusive [inhibitor, partial curve, poor fit]"}, {"smiles": "COC(=O)c1sccc1NC(=O)CC1C(=O)NCCN1C(=O)Nc1ccc(OCc2ccccc2)cc1", "note": "(stereo not drawn)", "Potency": "inconclusive [inhibitor, single point]"}, {"smiles": "Cc1cc(NC(=O)COn2nnc3ccc(S(C)(=O)=O)cc32)ccc1Br", "Potency": "active: 16.4 µM"}, {"smiles": "CCCCCN1CC(O)=C(c2ccccc2)C1=N", "activity change, negative = growth inhibition": "inactive: -23.7%"}, {"smiles": "Cc1cc2n(n1)SC(Nc1cc(Cl)ccc1Cl)N2", "note": "(stereo not drawn)", "activity change, negative = growth inhibition": "inactive: -14.3%"}, {"smiles": "O=C(Nc1nc2ccccc2[nH]1)c1ccccc1[N+](=O)[O-]", "activity change, negative = growth inhibition": "inactive: -1.49%"}, {"smiles": "CCOc1cc(C2NC(=O)c3ccccc3O2)ccc1OC(C)C", "note": "(stereo not drawn)", "activity change, negative = growth inhibition": "inactive: -1.7%"}, {"smiles": "CC(C)C[C@H](NC(=O)c1[nH]cnc1C(=O)Nc1ccccc1F)C(=O)OC(C)(C)C", "Potency": "active: 23.1 µM"}, {"smiles": "O=C1NC2(CCCC2)C(=O)N1CC(=O)N(Cc1ccccc1)c1ccccc1", "activity change, negative = growth inhibition": "inconclusive: -31.3% [inhibitor]"}, {"smiles": "CCOc1cc(/C=N/NC(N)=O)ccc1OCC(=O)Nc1ccc(C)c(C)c1", "Potency": "active: 23.1 µM"}, {"smiles": "O=C(CC(Nc1ccc(F)cc1)C(=O)O)c1ccccc1", "note": "(stereo not drawn)", "Potency": "inconclusive [inhibitor, single point]"}, {"smiles": "Cc1c(C(=O)O)sc2nc(-c3cccs3)cc(C(F)(F)F)c12", "Potency": "inconclusive [inhibitor, partial curve]"}, {"smiles": "CC1(C(=O)NS(=O)(=O)c2ccc3c(c2)CCO3)CCN1C(=O)Cc1ccc(-c2ccccc2)cc1", "note": "(stereo not drawn)", "activity change, negative = growth inhibition": "inactive: -9.35%"}, {"smiles": "CCS(=O)(=O)c1nc2ccccc2n1CC(=O)N1CCOCC1", "activity change, negative = growth inhibition": "inactive: -17.8%"}, {"smiles": "O=C1[C@H](Cc2ccccc2)NCC=CC[C@H](c2ccc(Cl)cc2)N1Cc1ccc(Cl)cc1", "Potency": "active: 16.4 µM"}, {"smiles": "COc1cc(-c2nc3ccccc3nc2-c2ccc(O)c(OC)c2)ccc1O", "Potency": "inconclusive [inhibitor, single point]"}, {"smiles": "CN(C)S(=O)(=O)c1cccc(C(=O)Nc2ccc(C(=O)Nc3cccc(S(N)(=O)=O)c3)cc2)c1", "activity change, negative = growth inhibition": "inconclusive: -32.3% [inhibitor]"}, {"smiles": "CC(C)(C)NS(=O)(=O)c1cnc(Cl)c(Cl)c1", "activity change, negative = growth inhibition": "inconclusive: -40.6% [inhibitor]"}, {"smiles": "C=CCSc1n[nH]c(-c2ccccc2)n1", "Potency": "inconclusive [inhibitor, full curve]"}, {"smiles": "COc1ccccc1N1CCN(C(=O)c2nc(-c3ccc(C)cc3)n3c2CCCCC3)CC1", "Potency": "inconclusive [inhibitor, single point]"}, {"smiles": "COc1ccc(NC(=O)c2cc(-c3cc(F)ccc3OC(C)C)n[nH]2)c(OC)c1", "Potency": "inconclusive [inhibitor, single point]"}, {"smiles": "Cc1ccc(S(=O)(=O)CCC(=O)Nc2nnc(-c3ccc(F)cc3)o2)cc1", "Potency": "inconclusive [inhibitor, single point]"}, {"smiles": "COc1cc(Cn2c(=O)c3c(OC)c(C)cnc3n(C)c2=O)cc(OC)c1", "Potency": "inconclusive [inhibitor, single point]"}, {"smiles": "COc1ccc(CCC(=O)N2CCN(S(=O)(=O)c3ccc(C)cc3)CC2)cc1", "activity change, negative = growth inhibition": "inactive: -28.5%"}]}]}
